# Assay results reported in the supplement of paper PMC4604168 (melanoma cell lines).
# The other results are listed elsewhere or left out. Many values rest on one well or one pass, so single values are uncertain.
# Columns and labels:
# Experiment in all cases: cell count relative to DMSO control; melanoma cells; higher = more viable cells
# Conditions in all cases: library dose: low library concentration; 72 h
# WM115 = tested on: WM115
# WM1716 = tested on: WM1716
# WM1745 = tested on: WM1745
# WM3526 = tested on: WM3526
# WM3619 = tested on: WM3619
# WM451Lu = tested on: WM451Lu
# 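Further: cell number obtained by counting DAPI-stained nuclei in high-throughput microscope images with image analysis software, screen run in 1,536-well plates.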
Compound,cell count (WM115) [%],cell count (WM1716) [%],cell count (WM1745) [%],cell count (WM3526) [%],cell count (WM3619) [%],cell count (WM451Lu) [%]
"CC1(C)CCC(c2ccc(Cl)cc2)=C(CN2CCN(c3ccc(C(=O)NS(=O)(=O)c4ccc(N[C@H](CCN5CCOCC5)CSc5ccccc5)c(S(=O)(=O)C(F)(F)F)c4)cc3)CC2)C1 + Cc1ccc(NC(=O)c2cccc(N(C)C)c2)cc1NC(=O)c1ccc(O)cc1 [ZM336372] (first compound 0.4 µM, partner dose 2 µM)",90.2,78.3,7.82,87.1,48.5,124
"CC1(C)CCC(c2ccc(Cl)cc2)=C(CN2CCN(c3ccc(C(=O)NS(=O)(=O)c4ccc(N[C@H](CCN5CCOCC5)CSc5ccccc5)c(S(=O)(=O)C(F)(F)F)c4)cc3)CC2)C1 + CCc1ccc(CCOc2ccc(CC3SC(=O)NC3=O)cc2)nc1 [pioglitazone] (first compound 0.4 µM, partner dose 2 µM)",86.4,79.8,14.9,95.1,76.3,84.5
"O=C(/C=C/c1cccnc1)NCCCCC1CCN(C(=O)c2ccccc2)CC1 + Cn1sc(=O)n(Cc2ccccc2)c1=O [TDZD-8] (first compound 0.01 µM, partner dose 0.4 µM)",94,98.3,114,112,102,105
"Cc1ccc(Nc2nccc(N(C)c3ccc4c(C)n(C)nc4c3)n2)cc1S(N)(=O)=O [Pazopanib] + Cn1c(Nc2ccc(C(F)(F)F)cc2)nc2cc(Oc3ccnc(-c4ncc(C(F)(F)F)[nH]4)c3)ccc21 [CHIR265] (first compound 0.4 µM, partner dose 0.08 µM)",68.1,79.7,84,78,86.9,84.7
"CC1(C)CCC(c2ccc(Cl)cc2)=C(CN2CCN(c3ccc(C(=O)NS(=O)(=O)c4ccc(N[C@H](CCN5CCOCC5)CSc5ccccc5)c(S(=O)(=O)C(F)(F)F)c4)cc3)CC2)C1 + CCCCCCCCCCCC1=C(O)C(=O)C=C(O)C1=O [Embelin] (first compound 0.4 µM, partner dose 1.2 µM)",78,63.6,14.8,73.1,88.4,98.6
"Cc1ccc(Nc2nccc(N(C)c3ccc4c(C)n(C)nc4c3)n2)cc1S(N)(=O)=O [Pazopanib] + OCCn1cc(-c2cnc3nnn(Cc4ccc5ncccc5c4)c3n2)cn1 [PF04217903] (first compound 0.4 µM, partner dose 1 µM)",108,89.4,97,96.3,117,81.8
"CC1(C)CCC(c2ccc(Cl)cc2)=C(CN2CCN(c3ccc(C(=O)NS(=O)(=O)c4ccc(N[C@H](CCN5CCOCC5)CSc5ccccc5)c(S(=O)(=O)C(F)(F)F)c4)cc3)CC2)C1 + COCC[n+]1c2c(n(Cc3cnccn3)c1C)C(=O)c1ccccc1C2=O [YM155] (first compound 0.4 µM, partner dose 0.0004 µM)",83.6,66.4,9.39,95.9,66.5,59.1
"Cc1ccc(Nc2nccc(N(C)c3ccc4c(C)n(C)nc4c3)n2)cc1S(N)(=O)=O [Pazopanib] + Oc1cc(-c2nc(-c3ccccc3)[nH]c2-c2ccncc2)ccc1Cl [L779450] (first compound 0.4 µM, partner dose 0.2 µM)",76.1,99.5,77.4,57.8,109,104
"O=C(/C=C/c1cccnc1)NCCCCC1CCN(C(=O)c2ccccc2)CC1 + Cc1cc([N+](=O)[O-])ccc1NS(=O)(=O)c1cc(Cl)ccc1Cl [FH535] (first compound 0.01 µM, partner dose 1 µM)",91.7,78.4,96.8,104,106,93.3
"Cc1ccc(Nc2nccc(N(C)c3ccc4c(C)n(C)nc4c3)n2)cc1S(N)(=O)=O [Pazopanib] + O=S(=O)(c1ccccc1)N(CC(F)(F)F)c1ccc(C(O)(C(F)(F)F)C(F)(F)F)cc1 [T0901317] (first compound 0.4 µM, partner dose 1.4 µM)",84.6,70.3,84,67,86.7,105
"Cc1ccc(Nc2nccc(N(C)c3ccc4c(C)n(C)nc4c3)n2)cc1S(N)(=O)=O [Pazopanib] + CNC(=O)c1cc(Oc2ccc(NC(=O)Nc3ccc(Cl)c(C(F)(F)F)c3)cc2)ccn1 [sorafenib] (first compound 0.4 µM, partner dose 0.4 µM)",82.3,79.8,89.2,82.6,80.2,108
"O=C(/C=C/c1cccnc1)NCCCCC1CCN(C(=O)c2ccccc2)CC1 + COc1cc(N2CCC(N3CCN(C)CC3)CC2)ccc1Nc1ncc(Cl)c(Nc2ccccc2S(=O)(=O)C(C)C)n1 [NVP-TAE684] (first compound 0.01 µM, partner dose 0.08 µM)",85.6,102,75.1,103,99.2,112
"O=C(/C=C/c1cccnc1)NCCCCC1CCN(C(=O)c2ccccc2)CC1 + O=C1NC(=O)/C(=C/c2ccc(-c3ccc(F)cc3O)o2)S1 [AS252424] (first compound 0.01 µM, partner dose 1 µM)",93,103,95.7,89.2,79.6,104
"CC1(C)CCC(c2ccc(Cl)cc2)=C(CN2CCN(c3ccc(C(=O)NS(=O)(=O)c4ccc(N[C@H](CCN5CCOCC5)CSc5ccccc5)c(S(=O)(=O)C(F)(F)F)c4)cc3)CC2)C1 + CN(c1ncccc1CNc1nc(Nc2ccc3c(c2)CC(=O)N3)ncc1C(F)(F)F)S(C)(=O)=O [PF562271] (first compound 0.4 µM, partner dose 0.08 µM)",78.6,75.2,7.71,101,90.2,66.5
"O=C(/C=C/c1cccnc1)NCCCCC1CCN(C(=O)c2ccccc2)CC1 + CN(C)S(=O)(=O)c1ccc2c(c1)/C(=C/c1cc3c([nH]1)CCCC3)C(=O)N2 [SU6656] (first compound 0.01 µM, partner dose 0.4 µM)",85.6,95.8,97.6,97,93.6,75.5
"Cc1ccc(Nc2nccc(N(C)c3ccc4c(C)n(C)nc4c3)n2)cc1S(N)(=O)=O [Pazopanib] + Cc1ccc(NC(=O)c2cccc(N(C)C)c2)cc1NC(=O)c1ccc(O)cc1 [ZM336372] (first compound 0.4 µM, partner dose 2 µM)",91,102,79.4,101,114,119
"Cc1ccc(Nc2nccc(N(C)c3ccc4c(C)n(C)nc4c3)n2)cc1S(N)(=O)=O [Pazopanib] + CCN(CC)CCCCNc1ncc2cc(-c3cc(OC)cc(OC)c3)c(NC(=O)NC(C)(C)C)nc2n1 [PD173074] (first compound 0.4 µM, partner dose 0.1 µM)",100,93.4,97.3,93.6,84.8,101
"O=C(/C=C/c1cccnc1)NCCCCC1CCN(C(=O)c2ccccc2)CC1 + NCC(=O)Nc1ccc(-n2nc(C(F)(F)F)cc2-c2ccc3c(ccc4ccccc43)c2)cc1 [OSU03012] (first compound 0.01 µM, partner dose 1 µM)",82.6,99.9,103,49.6,90.7,55.4
"CC1(C)CCC(c2ccc(Cl)cc2)=C(CN2CCN(c3ccc(C(=O)NS(=O)(=O)c4ccc(N[C@H](CCN5CCOCC5)CSc5ccccc5)c(S(=O)(=O)C(F)(F)F)c4)cc3)CC2)C1 + CC(C)(C)c1cnc(CSc2cnc(NC(=O)C3CCNCC3)s2)o1 [SNS-032] (first compound 0.4 µM, partner dose 0.01 µM)",88.4,85.2,16.3,110,78.8,77.8
"Cc1ccc(Nc2nccc(N(C)c3ccc4c(C)n(C)nc4c3)n2)cc1S(N)(=O)=O [Pazopanib] + Nc1ncn([C@H]2C[C@H](O)[C@@H](CO)O2)c(=O)n1 [decitabine] (first compound 0.4 µM, partner dose 0.1 µM)",92.1,70.4,103,83.1,88.8,72.7
"CC1(C)CCC(c2ccc(Cl)cc2)=C(CN2CCN(c3ccc(C(=O)NS(=O)(=O)c4ccc(N[C@H](CCN5CCOCC5)CSc5ccccc5)c(S(=O)(=O)C(F)(F)F)c4)cc3)CC2)C1 + Cc1cc(N2CCOCC2)cc2[nH]c(-c3c(NC[C@@H](O)c4cccc(Cl)c4)cc[nH]c3=O)nc12 [BMS536924] (first compound 0.4 µM, partner dose 0.2 µM)",96.4,86.1,9.47,79.3,77,90.2
"O=C(/C=C/c1cccnc1)NCCCCC1CCN(C(=O)c2ccccc2)CC1 + CCN(CC)CCCCNc1ncc2cc(-c3cc(OC)cc(OC)c3)c(NC(=O)NC(C)(C)C)nc2n1 [PD173074] (first compound 0.01 µM, partner dose 0.1 µM)",90.3,102,104,98.5,100,104
"O=C(/C=C/c1cccnc1)NCCCCC1CCN(C(=O)c2ccccc2)CC1 + COCC[n+]1c2c(n(Cc3cnccn3)c1C)C(=O)c1ccccc1C2=O [YM155] (first compound 0.01 µM, partner dose 0.0004 µM)",98.3,98.6,92.9,94,81.7,85.8
"CC1(C)CCC(c2ccc(Cl)cc2)=C(CN2CCN(c3ccc(C(=O)NS(=O)(=O)c4ccc(N[C@H](CCN5CCOCC5)CSc5ccccc5)c(S(=O)(=O)C(F)(F)F)c4)cc3)CC2)C1 + CN1CCN(c2ccc3nc(-c4c(N)c5c(F)cccc5[nH]c4=O)[nH]c3c2)CC1 [Dovitinib] (first compound 0.4 µM, partner dose 0.1 µM)",81.6,80.8,8.97,81.2,88.1,87.8
